According to PubChem BioAssay (NCI):
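Five compound concentrations were applied to cells in 96-well plates for 48 hours; endpoints were derived by simple linear interpolation of the resulting dose-response curve. Abbreviation: GI50, concentration required for 50% inhibition of growth. TGI: concentration producing complete growth inhibition.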

System: NCI-H322M lung
Experiment: NCI anticancer screen, dose series, 48 h

SMILES | GI50 [µM] | TGI [µM]
N#C/C(=C\c1ccc(N(c2ccccc2)c2ccccc2)cc1)C(N)=O | > 100 | > 100
O=C(N/N=C/c1ccc(B(O)O)s1)c1[nH]c2ccc(Br)cc2c1-c1ccccc1 | 0.613 | 17.8
Cn1cc(-c2cc3nc(-c4cn(C)c5ncc(Br)cc45)cc(N)n3n2)c2cc(Cl)ccc21 | 1.66 | 4.2
